PubChem BioAssay AID1347073 (National Center for Advancing Translational Sciences (NCATS), 2019)
The campaign covered roughly 45,000 compounds. About 200 (0.44%) were called active. Another 7% or so got no clear call; they are omitted. The call rests on the fitted dose curve; in most records, active means well fitted activation curve with a large enough effect; inconclusive means small, poorly fitted or top-dose-only effect; inactive means no such curve, though single readings can be large or run the other way. The list shows a part of the results.

Assay: qHTS of TDP-43 Inhibitors: NCGC Sytravon Library Screen; further: 0% is about no effect; nearly all actives have a fitted effect of over 55% in size
Conditions: yeast TDP-43 toxicity rescue, BacTiter-Glo growth, 24 h; series mostly up to 46.1 µM; growth rescue (activation): at the top concentration
Procedure, shortened: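 TDP-43-expressing yeast, pregrown in raffinose, seeded at OD600 0.02 in galactose medium with compound for 24 hr at 30 deg C. Growth read by BacTiter-Glo luminescence, so rescue of toxicity appears as activation.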

Compound	growth rescue (activation)
COCCN(C(=O)CCCC(=O)Nc1ccccn1)C(C(=O)NC1CCCCC1)c1ccc(C)cc1 (configuration not stated)	inactive: -0.906%
CNC(=S)N1CCN(c2nc(-c3ccc(Cl)cc3)cs2)CC1	inactive: 6.35%
Cc1ccc(-n2nc(C(=O)O)c3ccccc3c2=O)cc1C	inactive: 25.6%
O=C(NC1CCCC1)C1CC(=O)N(c2ccc(F)cc2)C1 (configuration not stated)	inactive: -11.1%
O=C(Nc1ccc(Cl)cc1)/C(=C/c1cccc(O)c1)c1nc2ccccc2s1	inactive: 6.91%
CC(=O)N(C)c1ccc(NC(=O)Nc2ccccc2C)cc1	inactive: -0.344%
COc1ccc(Cl)cc1N1C(=O)CC(N2CCN(S(=O)(=O)c3ccccc3F)CC2)C1=O (configuration not stated)	inactive: 9.06%
COc1ccc(NC(=O)c2ccc(CNc3c(N4CCCC4)c(=O)c3=O)cc2)cc1Cl	inactive: 25.6%
Cc1ccc(NS(=O)(=O)c2ccc(OCC(=O)NCc3ccncc3)cc2)cc1	inactive: 3.56%
CCCc1nnc(SCC(=O)Nc2ccccc2Cl)n1CC1CCCO1 (configuration not stated)	inactive: -9.09%
N#Cc1ccccc1OCC(=O)Nc1ccc(S(=O)(=O)N2CCOCC2)cc1	inactive: 11.7%
Cc1ccccc1-c1cn(-c2ccccc2)c(=S)[nH]1	inactive: 0.942%
O=C(COC(=O)c1ccc(Cl)nc1)NCc1ccc(F)cc1	inactive: 7.46%
O=C(COC(=O)Cn1cc(C(F)(F)F)ccc1=O)Nc1ccc(Br)cc1F	inactive: -5.86%
Cn1c(NC(=O)/C=C/c2ccc(Cl)c(Cl)c2)cc(=O)n(C)c1=O	inactive: 17.9%
C/C(=N\NC(=O)CCc1c[nH]c2ccccc12)c1cccc([N+](=O)[O-])c1	inactive: 8.47%
Cc1nc(C)n(CCNS(=O)(=O)c2ccc(C)c(C)c2)n1	inactive: 7.26%
O=C(NCCOc1ccccc1)C1=CC=CN2CCS(=O)(=O)N=C12	inactive: 14.1%
C/C(=N/NC(=O)c1nnn(-c2nonc2N)c1-c1ccccc1)c1ccncc1	inactive: -3.59%
O=C(CCN1C(=O)/C(=C/c2ccc3c(c2)OCO3)SC1=S)Nc1ccc(C(=O)O)cc1	inactive: 3.94%
CC(C(=O)c1ccc(-c2ccccc2)cc1)[n+]1cccc(Br)c1 (configuration not stated)	inactive: 20.2%
O=C(O)C1CCCN(C(=O)c2cccc3ccccc23)C1 (configuration not stated)	inactive: 0.79%

Compound	growth rescue (activation)
CCCCN(C)C1CCN(C(=S)Nc2ccc(OC)cc2)CC1	inactive: 7.83%
COc1ccc(Cc2nc3ccc(C(=O)N4CCC[C@H]4CO)cc3o2)cc1	inactive: -1.25%
Cc1cc(Oc2ccc(OCC(N)=O)nn2)nc(Cl)n1	inactive: 2.81%
CC(C(=O)O)n1cc(Cl)cn1 (configuration not stated)	inactive: -26.7%
CCn1c(SCC(=O)NNC(=O)c2ccc(C)cc2)nnc1C(C)C	inactive: -1.9%
COc1cc2[nH]c3c(=O)n(CCN4CCOCC4)cnc3c2cc1OC	inactive: -11.9%
CN(Cc1ccccc1)C(=O)CN1C(=O)c2ccc([N+](=O)[O-])cc2C1=O	inactive: -1.16%
Cc1cc(C)c(NC(=O)COC(=O)C2CCCO2)c(C)c1 (configuration not stated)	inactive: -1.97%
COc1cc(C(=O)N/N=c2/sc3ccccc3n2C)cc(OC)c1OC	inactive: 5.27%
Cc1c(O)ccc2c(=O)c(-c3nncn3-c3ccccc3)coc12	inactive: -1.96%
CSCC[C@H](NC(=O)NCCc1ccc(F)cc1)C(=O)O	inactive: 3.16%
Cc1cc(C)cc(OCC(=O)Nc2ccccc2C(=O)N2CCOCC2)c1	inactive: -1.39%
Cn1cnnc1SCC(=O)Nc1cc(S(=O)(=O)N2CCCCC2)ccc1Cl	inactive: 8.37%
Cc1ccc(NC(=O)Cn2cnc3cc([N+](=O)[O-])ccc3c2=O)c(Cl)c1	inactive: 11.7%
CCCC(C(=O)NCc1ccco1)N(CC1CCCO1)C(=O)CNS(=O)(=O)c1ccc(F)cc1 (configuration not stated)	inactive: 6.03%
CC(C)CNc1nc(NC(C)(C)C)nc(Oc2ccc(=O)[nH]n2)n1	inactive: 5.67%
Cc1cc2cccc(C)c2nc1SCC(=O)NC1CCCCC1	inactive: 10.8%
CCCCN(C)C(=O)Cn1nc(-c2ccc(Cl)cc2)ccc1=O	inactive: 1.09%
Cc1ccc(C)c(S(=O)(=O)Nc2ccccc2C(=O)Nc2ccc(S(=O)(=O)Nc3ncccn3)cc2)c1	inactive: -10.3%
COc1ccc(C(=O)NC(=S)NNC(=O)c2ccc(O)cc2)cc1[N+](=O)[O-]	inactive: 22.5%
O=C(c1cc2ccc([N+](=O)[O-])cc2oc1=O)N1CCOCC1	inactive: 11.9%
CCSc1nnc2c(n1)OC(c1ccc(C)s1)Nc1ccccc1-2 (configuration not stated)	inactive: 9.59%

Compound	growth rescue (activation)
CC(C)(C)c1ccc(C(=O)Nc2sc3c(c2C(=O)O)CCC3)cc1	inactive: 6.04%
CCN(c1ccccc1)S(=O)(=O)c1ccc(OC)c(NC(=O)c2ccc(=O)[nH]c2)c1	inactive: -18.2%
COc1ccc(CNC(=O)CN(CCC(C)C)S(=O)(=O)c2ccc3c(c2)OCCO3)cc1	inactive: 27.4%
COc1ccc(C)cc1S(=O)(=O)N1CCN(C(=O)c2ncoc2-c2ccc(C)cc2)CC1	inactive: 17.2%
CCOC(=O)/C(=C/C=C1\Sc2cc(OCC)c(OCC)cc2N1CC)C(C)=O	inactive: 6.34%
CCC(=O)N=c1ccn(C2=Nc3ccccc3NC2=C(C#N)C#N)cc1	inactive: -8.5%
Cc1ccc(S(=O)(=O)N2CCOCC2)cc1C(=O)Nc1ccccc1F	inactive: 18.4%
CCNC(=S)N(CCc1ccc(OC)c(OC)c1)Cc1cc2cc(OC)ccc2[nH]c1=O	inactive: 6.24%
COc1ccc(CC(=O)Nc2nc(-c3ccc(OC)c(OC)c3)cs2)cc1OC	inactive: 20.5%
COc1cc(CC(=O)Nc2ccc(Cl)c(C(F)(F)F)c2)cc(OC)c1OC	inactive: 1.1%
O=C(Cn1c(=O)oc2cc(S(=O)(=O)N3CCCC3)ccc21)Nc1ccc(F)cc1F	inactive: 5.36%
CC(C)CCN(CC(=O)NCc1ccc(F)cc1)S(=O)(=O)c1ccccc1F	inactive: 9.34%
O=C(Cc1ccccc1[N+](=O)[O-])N1CCN(c2ccccc2F)CC1	inactive: 21.1%
Cc1cccc(CCN(C(=O)c2snc(C(N)=O)c2N)C(C(=O)NCC2CCCO2)c2ccc(F)cc2)c1 (configuration not stated)	inactive: 8.3%
Nc1nonc1-c1nc2ccccc2n1CC(=O)Nc1ccccc1	inactive: -4.46%
Cc1cc(=O)[nH]c(N/N=C/c2ccc(N(C)C)cc2)n1	inactive: -17.3%
CCOc1cc(Cl)c(S(=O)(=O)NCCCN2CCOCC2)cc1Cl	inactive: -8.89%
COc1ccc(CCNC(=O)CSc2n[nH]c(N)n2)cc1	inactive: -4.58%
O=Cc1c(Cl)nc2ccccn2c1=O	inactive: 0.242%
O=C1Nc2c(Br)cc(Br)c3cccc1c23	inactive: 3.59%
O=C(CCSCc1ccc(Cl)cc1)NCCC1=CCCCC1	inactive: 17.1%
O=C(Cc1ccccc1Cl)Nc1nc2ccccc2[nH]1	inactive: 7.77%

Compound	growth rescue (activation)
CCOC(=O)c1oc2cc(O)ccc2c(=O)c1-c1csc(C)n1	inactive: 3.74%
COc1cc(C(C)=O)ccc1OCC(O)CN1CCN(c2c(C)cccc2C)CC1 (configuration not stated)	inactive: -4.36%
COc1cc(NC(=O)c2ccccc2[N+](=O)[O-])c(C(=O)O)cc1OC	inactive: 6.91%
CC(C)c1cc(C(=O)NNC(=S)NCc2ccco2)c(O)c(C(C)C)c1	inactive: 33.4%
CC1(C)CC(N2CCC(=O)N(C3CC(C)(C)NC(C)(C)C3)C2)CC(C)(C)N1	inactive: 23.7%
CCOC(=O)N1CCN(C(=O)CCNS(=O)(=O)c2ccccc2)CC1	inactive: 13.4%
COc1ccc(/C(C)=N/NC(=O)CNC(=O)c2ccco2)cc1	inactive: 6.37%
COc1ccccc1NC(=O)COc1ccc(/C=N/NC(=O)CSCc2cc(C)cc(C)c2)cc1	inactive: 6.46%
Cc1ccc(C2(C)NC(=O)N(CC(=O)Nc3cccnc3Cl)C2=O)cc1 (configuration not stated)	inactive: -2.09%
O=C1Nc2ccc(F)cc2C12OCCO2	inactive: -21%
O=C(CCSCCc1ccccn1)Nc1ccc(Br)cc1F	inactive: 2.22%
O=C(Cc1n[nH]c(=O)c2ccccc12)OCc1c(Cl)cccc1Cl	inactive: -6.2%
CCC(=O)NC(c1ccc(N(C)C)cc1)c1c(O)ccc2ccccc12 (configuration not stated)	inactive: 2.08%
COc1ccccc1N1Cc2ccc(OC)c(OC)c2C1=O	inactive: -9.45%
Cc1ccc2[nH]c3c(NCCN4CCOCC4)ncnc3c2c1	inactive: 22.6%
CCNC(=O)COc1ccc(OCc2ccccc2)cc1	inactive: 7.8%
Cc1ccc(CN2C(=NC(=O)CCC(=O)O)SC3CS(=O)(=O)CC32)cc1 (configuration not stated)	inactive: 31.8%
COC(=O)c1ccc(NC(=O)CSc2nncn2-c2cccnc2)cc1	inactive: -14.6%
CCCCN(CC)Cc1ccc(CNC(=S)Nc2ccc(C)cc2Cl)o1	inactive: -3.64%
CC(=O)c1ccc(S(=O)(=O)Nc2cc3c(cc2C(C)=O)OCO3)cc1	inactive: 9.43%
CN1/C(=C\C(=O)C[n+]2ccc3ccccc3c2)C(C)(C)c2ccccc21	inactive: -4.86%
CC(=O)N1CCN(S(=O)(=O)c2cccc(C(=O)Nc3ccc(F)c(F)c3)c2)CC1	inactive: 7.78%

Compound	growth rescue (activation)
Cc1cc(C)n(CCNC(=O)c2ccc3c(c2)OCO3)n1	inactive: 1.05%
COc1ccc([N+](=O)[O-])cc1NC(=O)c1ccc(C)o1	inactive: 36.1%
CC(=O)NCCC(=O)Nc1nc(-c2c[nH]c3ccccc23)cs1	inactive: 5.83%
O=C(O)c1ccc(-c2nc(-c3ccccc3Cl)cs2)cc1	inactive: 7.57%
COc1cc(OC)cc(C(=O)Nc2ccc3c(c2)OCCO3)c1	inactive: 25.7%
CCn1cc(C(=O)O)c(=O)c2cc(F)c(N3CCN(C(=S)NC(=O)c4ccccc4)CC3)cc21	inactive: 21.3%
NC(=O)c1ccsc1NC(=O)COC(=O)COc1ccccc1F	inactive: 13.1%
CC(C)C(=O)Nc1ccc(C(=O)Nc2nnc(C(C)(C)C)s2)cc1	inactive: -7.75%
Cc1nnc(SC(C)C(=O)Nc2ccc3ccccc3c2)[nH]c1=O (configuration not stated)	inactive: 7.78%
O=C1CC(N2CCN(c3ccc(F)cc3)CC2)C(=O)N1Cc1ccccc1 (configuration not stated)	inactive: -7.97%
Cc1ccccc1Nc1c(-c2ccccc2)nc2ncccn12	inactive: 4.77%
CN(c1ccccc1)S(=O)(=O)c1ccc2c(c1)oc(=O)n2C	inactive: 15.4%
O=C(/C=C/c1ccc(N2CCCCC2)c([N+](=O)[O-])c1)c1ccc(S(=O)(=O)N2CCCC2)cc1	inactive: 22.3%
CN(C)CCNC(=O)C1(O)c2cc(Br)ccc2NC(=O)N1c1ccc(Cl)cc1 (configuration not stated)	inactive: 5.69%
OC[C@H]1O[C@@H](c2nc(-c3cccc4ccccc34)no2)[C@H](O)[C@@H]1O	inactive: -13.5%
CCOc1ccc(C(=O)N2CCCC(c3nc(-c4ccc(C)o4)no3)C2)cc1 (configuration not stated)	inactive: 5.23%
COc1ccccc1C(=O)NCCCNC(=O)c1ccccn1	inactive: -13.6%
COc1cc(N2CCCC2)c(OC)cc1/C=C(/C#N)c1cccc(Br)c1	inactive: 43.9%
CCCCOc1ccc(C2(C)NC(=O)NC2=O)cc1 (configuration not stated)	inactive: 7.11%
